Measured values as given in PubChem BioAssay AID485294 (National Center for Advancing Translational Sciences (NCATS), 2010).
About 150 (0.041%) of roughly 370,000 compounds were called active. This list was built around the results that the source calls inconclusive (neither active nor inactive); the mix of calls is not that of the screen. Calls come from the whole dose curve; as a rule, active = well fitted inhibition curve with a large enough effect; inconclusive = small, poorly fitted or top-dose-only effect; inactive = flat fitted curve, though single readings scatter. No potency is given beside an inconclusive call; the fits are too rough.

molecular target: Beta-lactamase (Escherichia coli (strain K12)) (UniProt P00811); test: qHTS Inhibitors of AmpC Beta-Lactamase (assay with detergent); settings: AmpC hydrolysis of nitrocefin, absorbance 480 nm, 0.01% Triton; activity change, negative = inhibition: at 114 µM (top of the series); note: nearly all actives have a fitted effect of over 25% in size;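 for activity change, negative = inhibition: 0% = no-compound wells and -100% = no-enzyme wells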
Chain of UniProt P00811 (P00811 whole entry, looked up): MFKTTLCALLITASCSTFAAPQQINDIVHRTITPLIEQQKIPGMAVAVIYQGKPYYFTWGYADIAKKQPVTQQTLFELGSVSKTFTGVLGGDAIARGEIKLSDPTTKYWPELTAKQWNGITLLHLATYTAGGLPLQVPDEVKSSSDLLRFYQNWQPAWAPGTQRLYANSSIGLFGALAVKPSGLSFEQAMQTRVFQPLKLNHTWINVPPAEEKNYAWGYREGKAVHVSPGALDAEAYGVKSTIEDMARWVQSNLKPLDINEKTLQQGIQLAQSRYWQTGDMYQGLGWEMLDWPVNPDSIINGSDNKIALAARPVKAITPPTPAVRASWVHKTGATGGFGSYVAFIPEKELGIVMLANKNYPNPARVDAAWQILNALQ
Outline: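 AmpC (5.3 nM in the dispensed reagent) in 20 mM phosphate pH 7.0 with 0.01% (detergent screen) or 0.0001% Triton X-100 was preincubated with compounds for 15 min at room temperature. Nitrocefin was then added from an 800 uM solution, and hydrolysis was followed at 480 nm.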
Potency is the fitted concentration of half-maximal effect; tags give direction and shape of the fitted curve.

How did the Potency turn out when `CC1(C)Oc2ccc(C(=O)N3CCOCC3)cc2N(CC(=O)N2CCOCC2)C1=O` was run?
Its Potency is inconclusive [inhibitor, full curve].

For `COc1ccc2oc(C(=O)OCC(=O)N(C)CC(=O)Nc3ccc(C)cc3)c(C)c2c1`, which Potency is on record?
The Potency was inconclusive [inhibitor, full curve, poor fit].

`N/C(=N\OC(=O)N1CCOCC1)c1ccc(Cl)cc1` was tested. Which Potency did it give?
The Potency was inconclusive [inhibitor, full curve, poor fit].

For `CCOc1ccc(N(CC(=O)Nc2ccc(C)c(C)c2)S(=O)(=O)c2c(C)[nH]c(=O)[nH]c2=O)cc1`, which “activity change, negative = inhibition” value is on record?
Its value is inactive: 8.67%.

`CCCn1c2ccccc2c2cnn(CC(=O)NCCc3ccc(OCC)cc3)c(=O)c21` was tested. Which “activity change, negative = inhibition” value did it give?
The value was inactive: 1.08%.

For `COc1ccccc1CNS(=O)(=O)c1cc(C)ccc1OC`, which Potency is on record?
The Potency was inconclusive [inhibitor, single point].

For `NC(=S)Nc1cccc(F)c1`, which Potency is on record?
Its Potency is inconclusive [inhibitor, single point].

`CCN(CC)CCN1C(=O)C(=O)/C(=C(/O)c2ccc(OC)cc2)C1c1ccco1` (stereo not given) was tested. Which “activity change, negative = inhibition” value did it give?
Its value is inactive: -5.79%.

How did the Potency turn out when `Cc1ccc(C(C(=O)NCc2ccco2)N(C(=O)Cn2nnc3ccccc32)c2ccccc2)o1` (stereo not given) was run?
The Potency was inconclusive [inhibitor, partial curve].

With `CC(C)CNC(=S)N(CCN(C)C)Cc1cc2cc3c(cc2[nH]c1=O)OCCO3` as the compound, how does the “activity change, negative = inhibition” value read?
The value was inactive: 1.92%.

For `Cc1ccc(CNC(=O)c2ccc(OCC(C)C)cc2)n1C`, which “activity change, negative = inhibition” value is on record?
The value was inactive: 2.13%.

For `CCOc1ccc(NC(=S)C(C#N)=C2N(C)c3ccccc3N2C)cc1`, which Potency is on record?
Its Potency is inconclusive [inhibitor, full curve, poor fit].

How did the “activity change, negative = inhibition” value turn out when `O=C(CCC1CCCN(C(=O)c2cncs2)C1)NCc1ccc(F)c(F)c1` (stereo not given) was run?
Its value is inactive: -6.3%.

How did the Potency turn out when `O=C(Nc1ncccn1)c1ccc([N+](=O)[O-])cc1Cl` was run?
The Potency was inconclusive [inhibitor, full curve, poor fit].

`COc1cccc(C(=O)COc2cccc(NC(=O)c3ccco3)c2)c1` was tested. Which “activity change, negative = inhibition” value did it give?
Its value is inactive: -0.998%.

`Cc1c(C(=O)CN2CCOCC2)[nH]c2ccccc12` was tested. Which Potency did it give?
The Potency was inconclusive [inhibitor, full curve].

How did the Potency turn out when `Cc1cccc(NS(=O)(=O)c2cc3c4c(c2)CCC(=O)N4CCC3)c1` was run?
Its Potency is inconclusive [inhibitor, partial curve, poor fit].

For `Cc1ccc(N(C)C(=O)N2CCN(c3ccccn3)CC2)cc1`, which Potency is on record?
Its Potency is inconclusive [inhibitor, partial curve].

`COc1ccc2cc3cc(C(=O)NCc4ccc(C)cc4)oc3nc2c1` was tested. Which “activity change, negative = inhibition” value did it give?
Its value is inactive: -0.754%.

For `Cc1occc1C(=O)NCc1ccc(C(=O)O)o1`, which “activity change, negative = inhibition” value is on record?
Its value is inactive: -1.15%.

Which “activity change, negative = inhibition” value does the source give for `O=C(NC1CCCC1)c1cc(-c2cccc(Cl)c2)on1` here?
The value was inactive: -11.5%.

`COC(=O)c1nc(NC(=O)C(C)C)n[nH]1` was tested. Which “activity change, negative = inhibition” value did it give?
The value was inactive: 5.07%.

For `COc1cccc(C(c2sc3nc(-c4ccco4)nn3c2O)N2CCC(O)CC2)c1` (stereo not given), which “activity change, negative = inhibition” value is on record?
Its value is inactive: 5.96%.

Which “activity change, negative = inhibition” value does the source give for `CCOc1ccc(CC(=O)Nc2ccc(-c3ccc4nnc(C)n4n3)cc2)cc1` here?
The value was inactive: -2.84%.

Which Potency does the source give for `Cn1c(NC(=O)C[n+]2cc(-c3ccccc3)n3c2CCC3)cc(=O)n(C)c1=O` here?
Its Potency is inconclusive [inhibitor, single point].

`O=C(CNC(=O)C1CCCCC1)NC1CCCCC1` was tested. Which Potency did it give?
Its Potency is inconclusive [inhibitor, single point].

`CCC(=NCc1ccco1)c1c(O)[nH]c(=O)[nH]c1=O` was tested. Which Potency did it give?
The Potency was inconclusive [inhibitor, full curve, poor fit].

`CCS(=O)(=O)N1Cc2ccccc2CC1C(=O)Nc1nnc(SCc2ccc(C#N)cc2)s1` (stereo not given) was tested. Which “activity change, negative = inhibition” value did it give?
The value was inactive: -5.72%.

How did the Potency turn out when `O=c1[nH]c2ccsc2c(=O)n1-c1ccc(F)c(Cl)c1` was run?
The Potency was inconclusive [inhibitor, single point].

Which Potency does the source give for `CCCCn1c(NS(=O)(=O)c2ccc(C)cc2)c(C(=O)OCC)c2nc3ccccc3nc21` here?
Its Potency is inconclusive [inhibitor, full curve, poor fit].

Which Potency does the source give for `Cc1ccccc1NC(=O)C(C)OC(=O)CNS(=O)(=O)c1ccc(C#N)cc1` (stereo not given) here?
Its Potency is inconclusive [inhibitor, full curve, poor fit].

For `CCOC(=O)c1[nH]c2c(c1Cc1ccccc1)C(=O)CC(c1ccc(Cl)cc1)C2` (stereo not given), which “activity change, negative = inhibition” value is on record?
The value was inactive: -0.201%.

With `COc1cccc(NC(=O)Nc2ccc(Br)cn2)c1` as the compound, how does the “activity change, negative = inhibition” value read?
Its value is inactive: -1.53%.

`Cc1ccc(CC(=O)Nc2ccc(S(=O)(=O)Nc3ncccn3)cc2)cc1` was tested. Which Potency did it give?
Its Potency is inconclusive [inhibitor, partial curve, poor fit].

For `N#CC1=C(SCC(=O)c2ccc(Cl)cc2)NC2=C(C(=O)CCC2)C1c1ccco1` (stereo not given), which Potency is on record?
The Potency was inconclusive [inhibitor, single point].

With `COc1cc(C2C3=C(CCCC3=O)Nc3[nH]n(-c4ccccc4)c(=O)c32)ccc1O` (stereo not given) as the compound, how does the Potency read?
The Potency was inconclusive [inhibitor, full curve, poor fit].

`COC(=O)c1scc(-c2ccc(C)cc2)c1S(=O)(=O)Nc1cc(Cl)ccc1C` was tested. Which “activity change, negative = inhibition” value did it give?
The value was inactive: 3.92%.

Which Potency does the source give for `C1=CC2CC1CC2CN1CCN(c2ccccc2)CC1` (stereo not given) here?
Its Potency is inconclusive [inhibitor, full curve, poor fit].

`O=C(Cc1cccc2ccccc12)Nc1cc(Cl)ccc1C(=O)O` was tested. Which “activity change, negative = inhibition” value did it give?
Its value is inactive: -2.12%.

Which Potency does the source give for `CSc1nc(C)cc(OCC(=O)n2nc(C)cc2C)n1` here?
The Potency was inconclusive [inhibitor, full curve, poor fit].

`Cc1cc(C)nc(N(C#N)CN2C(=O)c3ccccc3C2=O)n1` was tested. Which Potency did it give?
Its Potency is inconclusive [inhibitor, single point].

Which Potency does the source give for `CN(CC(=O)Nc1c(Cl)cccc1Cl)C(=O)C1CCN(C(=O)Nc2ccccc2)CC1` here?
Its Potency is inconclusive [inhibitor, full curve].

For `COc1ccccc1OCCC(=O)OCC(=O)Nc1cc(S(=O)(=O)N2CCOCC2)ccc1Cl`, which Potency is on record?
The Potency was inconclusive [inhibitor, partial curve, poor fit].

`O=[N+]([O-])c1cc([N+](=O)[O-])c(Oc2ccccc2F)cc1NN1CCCCC1` was tested. Which Potency did it give?
The Potency was inconclusive [inhibitor, full curve, poor fit].

`Cc1ccc(C(=O)NNC(=O)c2csc(N3CCOCC3)n2)s1` was tested. Which Potency did it give?
Its Potency is inconclusive [inhibitor, full curve, poor fit].

Which “activity change, negative = inhibition” value does the source give for `COc1cccc(C2=CC(c3ccc(N(C)C)cc3)n3ncnc3N2)c1` (stereo not given) here?
Its value is inactive: -8.84%.

`CC(=O)N1CCN=C1SCc1ccc(C)cc1` was tested. Which Potency did it give?
Its Potency is inconclusive [inhibitor, full curve, poor fit].

How did the Potency turn out when `CCOC(=O)c1ccc(N2C(=O)c3n[nH]c(C)c3C2c2ccco2)cc1` (stereo not given) was run?
The Potency was inconclusive [inhibitor, full curve].

For `COc1ccccc1/C=c1\sc2nc(-c3ccco3)nn2c1=O`, which Potency is on record?
Its Potency is inconclusive [inhibitor, full curve].

How did the Potency turn out when `COc1ccc(-c2nc(C#N)c(N3CCN(c4cccc(Cl)c4)CC3)o2)cc1OC` was run?
The Potency was inconclusive [inhibitor, single point].

How did the “activity change, negative = inhibition” value turn out when `Cc1noc(C)c1S(=O)(=O)N(CC(=O)NCc1ccc2c(c1)OCO2)c1ccc(C(C)C)cc1` was run?
The value was inactive: -14.1%.

For `CCn1c(SC)nnc1C1CCN(S(=O)(=O)c2ccc(OC)cc2)CC1`, which “activity change, negative = inhibition” value is on record?
The value was inactive: -6.68%.

`CCOc1ccc(S(=O)(=O)N2CCN(Cc3ccccc3)CC2)cc1` was tested. Which Potency did it give?
Its Potency is inconclusive [inhibitor, partial curve].

How did the Potency turn out when `Nc1nc2n(n1)C(c1cccs1)CC(c1ccccc1)N2` (stereo not given) was run?
The Potency was inconclusive [inhibitor, single point].

For `Cc1ccc(NS(=O)(=O)c2ccc(-c3ccc(=O)[nH]n3)o2)cc1`, which Potency is on record?
Its Potency is inconclusive [inhibitor, full curve, poor fit].

With `COc1ccc(CCNC(=O)CCCn2c(=O)c3ccccc3n(Cc3cccc(Cl)c3)c2=O)cc1OC` as the compound, how does the “activity change, negative = inhibition” value read?
The value was inactive: -1.05%.

`Cc1cnc(C(=O)NC(C)CCc2ccccc2)cn1` (stereo not given) was tested. Which Potency did it give?
Its Potency is inconclusive [inhibitor, full curve, poor fit].

`Cc1ccc(C)c(S(=O)(=O)N2CCN(Cc3ccc(O)c4ncccc34)CC2)c1` was tested. Which “activity change, negative = inhibition” value did it give?
The value was inactive: -8.85%.

Which Potency does the source give for `COc1ccc(C(=O)NC(C)c2nnc(SCC(=O)Nc3nc4ccccc4s3)n2C)cc1` (stereo not given) here?
The Potency was inconclusive [inhibitor, partial curve].

`CCOc1ccc(N(C(=O)CC(C)C)S(=O)(=O)c2ccc3c(c2)oc(=O)n3C)cc1` was tested. Which “activity change, negative = inhibition” value did it give?
The value was inactive: -3.06%.

How did the “activity change, negative = inhibition” value turn out when `COc1ccc(CN2CCNC(=O)C2CC(=O)N(C)Cc2nccs2)cc1OC` (stereo not given) was run?
The value was inactive: -5.62%.

For `Cc1ccc(N(CC(=O)NCC2CCCO2)S(C)(=O)=O)cc1Cl` (stereo not given), which Potency is on record?
Its Potency is inconclusive [inhibitor, single point].

Which Potency does the source give for `O=C(O)CCNC(=O)c1ccc(Br)o1` here?
The Potency was inconclusive [inhibitor, full curve].

Which Potency does the source give for `O=C(c1ccco1)N1C(=O)c2cccc3c(S(=O)(=O)N4CCCC4)ccc1c23` here?
The Potency was inconclusive [inhibitor, partial curve, poor fit].

How did the Potency turn out when `CC1CCc2sc3ncnc(N4CCN(C)CC4)c3c2C1` (stereo not given) was run?
The Potency was inconclusive [inhibitor, full curve, poor fit].

How did the Potency turn out when `CCC(=O)Oc1oc(-c2ccccc2)nc1C=Nc1ccccc1OC` was run?
The Potency was inconclusive [inhibitor, full curve, poor fit].

For `O=C(c1ccccc1)c1cnc(-c2ccc(Cl)cc2)s1`, which “activity change, negative = inhibition” value is on record?
The value was inactive: -2.12%.

With `COc1cccc(CN=CC2=C(O)CC(C)(C)CC2=O)c1OC` as the compound, how does the Potency read?
The Potency was inconclusive [inhibitor, full curve, poor fit].

How did the “activity change, negative = inhibition” value turn out when `CCOC(=O)c1sc2ncn(CC(=O)Nc3ccc(N(C)C)cc3)c(=O)c2c1C` was run?
Its value is inactive: 7.76%.

`COc1ccccc1N1CCN(C2CCCC(C)C2)CC1` (stereo not given) was tested. Which Potency did it give?
Its Potency is inconclusive [inhibitor, full curve, poor fit].
